Data published in the supplement of paper PMC10338343.
± gives the standard deviation. Only a part is listed here, and it is no random draw.

Test system: MIWI (PIWIL1) piRISC loaded with L1MC piRNA (30 nt)
Assay: pre-steady-state target cleavage rate (min^-1); MIWI and MILI are mouse PIWI proteins and EfPiwi is from a freshwater sponge; tags in brackets are library labels; higher = faster piRNA-guided slicing of the target
Conditions: guide: L1MC piRNA 5'p-UAACUAAAUACUAUGCAAGCUGUAGGUCCU
Outline: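 In HEPES–potassium acetate buffer at 33 °C, […] transcribed, DNA-blocked target RNA library was mixed with 1 nM active affinity-purified piRISC carrying one synthetic guide, with or without 500 nM GTSF1 partner protein, for 0–8 or 0–960 min. Uncleaved targets were sequenced and normalised to depth and to weakly complementary targets; three trials were pooled and k3 was capped at 0.0001 min^-1. The pre-steady-state cleavage rate followed from a burst-and-steady-state fit.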

[1] = auxiliary factor: 500 nM mouse GTSF1
[2] = auxiliary factor: none (no GTSF1)
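Also: 1 nM active piRISC with 0.1 nM target library at 33 °C single turnover.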

Sequence	pre-steady-state target cleavage rate [1]	pre-steady-state target cleavage rate [2]
UCCACCUACAGCUUCCAUAGUAUUUAGAAA	0.0141 ± 0.0076	–
UGUACCUACAGCUUGCAUAGUAUUUAGUUA	–	0.0875 ± 0.013
UCCUGGAACACGUUGCAUAGUAUUUUCAAA	0.00665 ± 0.0042	–
UCCUGGAUGUGCUUGCAUAGUAUUUAUUA	0.0179 ± 0.0058	–
UCCUGCUACAGCAUCCAUAGUAUUUAGUUA	0.244 ± 0.047	–
AGGACCUACAGCUUCGAUAGUAUUUACAAA	0.0535 ± 0.017	–
UCCUCCUAGUCCUUGCAUAGUAUUUACAAA	0.115 ± 0.026	–
UCCUGCUACAGCUUGCAUAGUUUUUUCAAA	0.122 ± 0.022	–
UCGACCUACAGCUUGCAAUGUAUUUAGAAA	0.086 ± 0.013	–
UCCUCCUACAGCUUGCAAUCUAUUUAGAAA	0.0685 ± 0.02	–
UCCACCUACAGCUUCGUUAGUAUUUAGUAA	0.0261 ± 0.0075	–
UCGACCUACAGCUUCCAUACUAUUUAGUUA	0.0259 ± 0.01	–
UCCUGGAUGUCGAACGUAUCUGAUUUAGUUA	< 0.0001	–
UCCUCCUUGUGCUUGCAUAGUAUUUACAAA	0.0913 ± 0.018	–
UCCUGGAUGUCGAACGUAUGUAUUUAUUA	–	< 0.0001
UCCUGGUACAGCUUCGUUAGUAUUUAGUUA	0.0426 ± 0.0061	–
UCCUGGAUGUCGAACGUAAGAUUUAGUUA	–	< 0.0001
UCCUGGAUGUCCUUCAUAGUAUUUAGUUA	0.0109 ± 0.0036	–
UCCUCCUACAGCUUGCAUAGUAUUUACAAA	0.361 ± 0.044	–
UCCUGGUACAGCUUGGUUAGUAUUUACAAA	0.0315 ± 0.013	–
UCGACCUUGAGCUUGCAUAGUAUUUUCAAA	0.156 ± 0.026	–
UCGACCUACAGCUUGCAAUCUAUUUAGAAA	0.129 ± 0.033	–
UCCACCUACAGCUUGCUAAGUAUUUAGAAA	0.0236 ± 0.0081	–
AGGACCUACAGCUUGCUAAGUAUUUUCAAA	0.0205 ± 0.0097	–

Sequence	pre-steady-state target cleavage rate [1]	pre-steady-state target cleavage rate [2]
UCGACCUACAGCUUGCAAUGUAUUUUCAAA	0.0886 ± 0.026	–
UCCUGGAUGUCGAGGCAUAGUAUUUAGUUA	0.0222 ± 0.0065	–
UCCUGGAUGUCGAACGUAACUAUUUACUUA	< 0.0001	–
UCCUCCUACAGCUAGCAUAGUAUUUACAAA	0.265 ± 0.036	–
UCCUGGAUGUGCUUGCAUAGUUUUAAGUUA	0.00545 ± 0.0045	–
UCCUGGAUGUGCUUGCUUAGUAUUUAGAAA	0.0155 ± 0.0058	–
UCGACCUACAGCUUGCAUAGUAUAUAGAAA	0.391 ± 0.051	–
UCCUGGAUGUCCUUGCUAUGUAUUUAGUAA	0.00637 ± 0.0038	–
AGGACCUACAGCUUGCAUUCUAUUUAGAAA	0.15 ± 0.043	–
UCCUCCUAGAGCUUGCAUAGUAUUUUCAAA	0.186 ± 0.033	–
UCCUGCUACAGCUUGCAUAGUUUUUACAAA	0.241 ± 0.05	–
UCCUGGAUGACGAUGCAUAGUAUUUAGUAA	0.00983 ± 0.0051	–
UCCUGGAACACGUUGCAUAGUAUUUACAAA	0.0172 ± 0.0064	–
UCCUGGAUCAGCUUGCAUAGUAUUAUCAAA [g7:g22:cont:t1A]	0.226 ± 0.038	–
UCCUGCUACUCGUUGCAUAGUAUUUUCAAA	0.0195 ± 0.0071	–
UCCUGCUACAGCUUGCAUAGUAUUAAGAAA	0.414 ± 0.085	–
UGGACCUACAGCGUGCAUAGUAUUUAGUUA	–	0.0647 ± 0.013
UGGACCUACAGCUUGCAUCAGUAUUUAGUUA	0.00927 ± 0.0043	–
UCCUGGAUGUGGAAGCAUAGUAUUUAGUUA	0.00647 ± 0.0028	–
UCCUGGAUGUCGAAGCAUAGUAUUUCGUUA	0.00699 ± 0.0031	–
AGGACCUACAGGAAGCAUAGUAUUUAGAAA	0.292 ± 0.051	–
UCCUGGAACAGCUUCGAUAGUAUUUAGAAA	0.0121 ± 0.0047	–
UCCUGGAUGUCGAACGAAUAGUAUUUAGUUA	< 0.0001	–
UCCUGGAUGUCGUUGCAUAGUAUUUAGUCA	0.00397 ± 0.0038	–

Sequence	pre-steady-state target cleavage rate [1]	pre-steady-state target cleavage rate [2]
UCCUCCUACAGCUAGCAUAGUAUUUUCAAA	0.321 ± 0.04	–
UCCUGCUACAGCUUGCCAUAGUAUUUAGUUA	0.12 ± 0.021	–
ACGAGCUACAGCUUGCAUAGUAUUUAGUUA	–	0.094 ± 0.016
UGGACCUACAGCUUGCAUAGUAUAUUCAAA	0.231 ± 0.047	–
UCCUGCUACAGCUUGCAUAGUAUUAGUUA	0.103 ± 0.018	–
UCCUGGAUGUCGAACCAUAGAUUUAGUUA	< 0.0001	–
UCGACCUACAGCUUGCAUACAUUUUAGUUA	0.0121 ± 0.0056	–
UCCUGGAUGUCGAUGGCAUAGUAUUUAGUUA	0.00605 ± 0.0041	–
UCCUGGAUGUGCUUGCAUAGUUUUUAGUUA	0.0222 ± 0.0075	0.016 ± 0.0042
AGGACCUACAGCUUGCAUAGUUUUUAGUUA	0.433 ± 0.028	0.0499 ± 0.011
UCCUGGAACAGCUUGGAUAGUAUAUAGUUA	0.491 ± 0.058	0.0187 ± 0.0053
UCCUGGAUGUCGAACGUAAGUAUUUAUUA	< 0.0001	< 0.0001
UCCUCCUACUGCUUGCAUAGUUUUUAGUUA	0.337 ± 0.016	0.0191 ± 0.0029
UCCUCCUACAGCUCGCAUAGUAUUUAGUUA	1.31 ± 0.051	0.0488 ± 0.0093
UCCUGGUACAGCUUGCUUAGUAUAUAGUUA	0.361 ± 0.046	0.0202 ± 0.0066
UCCACCUACAGCUUGCAUAGUAUUUAGUUC [g2:g27:cont:t1C]	0.832 ± 0.031	0.0745 ± 0.014
UCCUGGUACAGCUUGCAUAGUAAUUUGUUA	0.349 ± 0.064	0.0176 ± 0.0044
AGGACCUUCAGCUUGCAUAGUAUUUUGUUA	1.06 ± 0.064	0.0688 ± 0.013
UCGACCUACAGCUUGCAUACUUUUUAGUUA	0.0508 ± 0.0081	0.0053 ± 0.0013
UCCUGGUACAGGUUGCAUAGUAAUUAGUUA	0.745 ± 0.12	0.0101 ± 0.0023
UCGACCUUGUGCUUGCAUAGUAUUUAGAAA	0.165 ± 0.024	0.00532 ± 0.0014
UCCUCCUACAGCUUGCAUAGUUAAUAGUUA	0.116 ± 0.019	0.00705 ± 0.0018
UCCUCCUACAGCUUGCAUAGUAUAUAGUUA	0.602 ± 0.035	0.0203 ± 0.0041
UCCUCCUACUGCUUGCAUAGUAUUUUGUUA	0.615 ± 0.023	0.0334 ± 0.0062

Sequence	pre-steady-state target cleavage rate [1]	pre-steady-state target cleavage rate [2]
UCCUCCUACAGCUUGCAUAGUAUUUAGUAUA	0.68 ± 0.03	0.0115 ± 0.0035
UCGACCUACAGCUUGCAUAGUAUUUAUGUUA	0.543 ± 0.027	0.0467 ± 0.0088
UCCUGGUACACUUGCAUAGUAUUUAGUUA	0.414 ± 0.058	0.0163 ± 0.0044
UCCUGGUACACCUUGGAUAGUAUUUAGUUA	0.553 ± 0.18	0.00815 ± 0.0041
UCCUCCUUCAGCUUGCAUAGUAUUUAGAUA	0.392 ± 0.034	0.0153 ± 0.0027
UCCUGGAACAGCUUGCUAAGUAUUUAGUUA	0.0878 ± 0.01	0.00736 ± 0.003
UCGACCUACAGCUUGGAAAGUAUUUAGUUA	1.12 ± 0.043	0.00439 ± 0.0018
UCCUGGAUGUCCUUGCAUAGUAAUUUAGUUA	0.00935 ± 0.0055	0.0037 ± 0.0027
UCCUGGAUCAGCAUGCAUAGUAUUUUGUUA	0.517 ± 0.03	0.00866 ± 0.003
UGGACCUACAGCUUCGCAUAGUAUUUAGUUA	1.43 ± 0.1	0.0229 ± 0.0062
UCCACCUACACGAUGCAUAGUAUUUAGUUA	0.868 ± 0.047	0.00438 ± 0.0017
UCGACCUACAGCUUGCAUAGUAAUUAGUUA	1.08 ± 0.049	0.0469 ± 0.012
UCCUGGUACAGCUUGGAUAGUAAUUAGUUA	0.524 ± 0.13	0.0127 ± 0.0029
UCCUGGAACCGCUUGCAUAGUAUUUAGUUA	0.935 ± 0.055	0.0255 ± 0.0054
UCCUCCUACAGCUUGCAAAGUAUUUUGUUA	0.548 ± 0.029	0.0121 ± 0.0023
UCCUGGAUCAGCUAGCAUAGUAUUUAGAUA	0.226 ± 0.026	0.00546 ± 0.0022
UCCACCUACAGCUUGCAUUGUAUUUACUUA	0.342 ± 0.031	0.017 ± 0.0047
UCCUGGAUCAGCUUGCAUAGUUUUUAGUAA	0.163 ± 0.019	0.02 ± 0.0057
UCCUGGUACAGCUUGCAUAGUAUCUAGUUA	0.274 ± 0.04	0.0282 ± 0.0066
UCCACCUAACAGCUUGCAUAGUAUUUAGUUA	0.616 ± 0.035	0.0394 ± 0.0065
UCCUGGAUGUGCUUGCAUAGUAUUUAGUAA	0.365 ± 0.031	0.0468 ± 0.011
UCCACCUACAGCUUGCAUAGUAUUUAGCUUA	0.272 ± 0.041	0.0142 ± 0.004
UCGAGCUACAGCUUGCAUAGUAUAUAGUUA	0.902 ± 0.056	0.0311 ± 0.0077
UCCUGGUACAGCUUGCGUAGUAUUUAGUUA	0.728 ± 0.061	0.0237 ± 0.0052

Sequence	pre-steady-state target cleavage rate [1]	pre-steady-state target cleavage rate [2]
UCGUACCUACAGCUUGCAUAGUAUUUAGUUA	0.909 ± 0.034	0.0778 ± 0.016
AGGAGCUACAGCUUGCUUAGUAUUUAGUUA	1.3 ± 0.061	0.0523 ± 0.011
UCCUGGUACAGCUUGCAUACUAUUUAGUUA	0.269 ± 0.041	0.0196 ± 0.0042
AGGACCUUCAGCUUGCAUAGUAUUUAGAAA	0.522 ± 0.056	0.0236 ± 0.0078
AGGACCUACUGCUUGCAUAGUAUUUUGUUA	0.913 ± 0.063	0.0554 ± 0.009
UCCUGCUACAGCUUGCAUAGAAUUUACUUA	0.313 ± 0.058	0.0078 ± 0.0019
AGGACCUACAGCUUGCAUAGUAUUUACUAA	0.274 ± 0.036	0.0131 ± 0.0036
UCCUGGUACCAGCUUGCAUAGUAUUUAGUUA	0.566 ± 0.079	0.0203 ± 0.0046
UCCUGGAUGUGCAUGCAAAGUAUUUAGUUA	0.0129 ± 0.0031	0.00516 ± 0.0023
ACGACCUACAGCUUGCAUAGUAUUUAGUAA	1.11 ± 0.042	0.0771 ± 0.016
UCCUGCUUCAGCUUGCAUAGUAUUUUGUUA	0.737 ± 0.034	0.037 ± 0.0071
UCCACCUACACCUUGGAUAGUAUUUAGUUA	0.588 ± 0.064	0.0236 ± 0.0034
UCCUGGUACAGCUUGCAUCGUAUUUAGUUA	0.203 ± 0.024	0.0269 ± 0.0059
UCCUGGAACAGCUUGCUUAGUAUUUACUUA	0.443 ± 0.044	0.0281 ± 0.0068
UCCUGGAUGUGCUUGCAUAGUAUAAUGUUA	0.0735 ± 0.015	0.00815 ± 0.0034
UGGACCUACAGCUUGCAUAGUAUUUAAUUA	0.218 ± 0.026	0.0278 ± 0.0048
UCCUCCUACAGCUUGCAUAGUAUUUGAGUUA	0.48 ± 0.033	0.0177 ± 0.0041
UCGACCUACAGCUUGCAUAGUUUUUUGUUA	0.327 ± 0.022	0.0209 ± 0.005
AGGACCUACAGCUACCAUAGUAUUUAGUUA	0.626 ± 0.043	0.00375 ± 0.003
UCCUGGAACAGCUUGCAUAGUAUAUAGUUA	0.662 ± 0.044	0.0357 ± 0.0083
UCCUGCUUGAGCUUGCAUAGUAUUUAGAAA	0.278 ± 0.036	0.00476 ± 0.0032
UCCACCUACACCUUGCAUAGUAUUUAGUAA	0.497 ± 0.062	0.0267 ± 0.0063
UCCUCCUUCAGGUUGCAUAGUAUUUAGUUA	0.916 ± 0.034	0.0338 ± 0.006
UCGAGGAACAGCUUGCAUAGUAUUUUCAAA	0.357 ± 0.051	0.00332 ± 0.0024
